Some of the results follow. At the low end of the ranking the order means little. Measured with an extract: partners may take part in the binding.

The assay concerns the target T1, HNF4alpha2 (COS-7 nuclear extract) (UniProt P41235).
T1 sequence: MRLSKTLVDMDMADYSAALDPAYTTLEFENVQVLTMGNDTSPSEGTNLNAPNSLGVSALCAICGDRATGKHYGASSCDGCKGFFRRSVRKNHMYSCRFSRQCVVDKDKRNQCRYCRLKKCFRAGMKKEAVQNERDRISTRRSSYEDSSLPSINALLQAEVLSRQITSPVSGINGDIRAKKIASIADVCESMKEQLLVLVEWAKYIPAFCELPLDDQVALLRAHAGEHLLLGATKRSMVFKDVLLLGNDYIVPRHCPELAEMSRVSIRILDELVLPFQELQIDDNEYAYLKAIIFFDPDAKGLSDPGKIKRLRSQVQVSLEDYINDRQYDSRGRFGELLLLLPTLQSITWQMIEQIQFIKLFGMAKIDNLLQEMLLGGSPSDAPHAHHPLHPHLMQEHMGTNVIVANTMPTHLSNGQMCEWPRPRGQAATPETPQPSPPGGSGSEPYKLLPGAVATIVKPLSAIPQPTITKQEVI
Description: protein-binding microarray. The following applies: COS-7 nuclear extract on double-stranded Agilent 4x180k PBM; binding buffer, salt, pH and temperature not given; high values mean tight binding; double strand, one strand shown; sequences stand for … in …GCCTAGGGAGATTAGAGTATCGGTCGA
Turning to TGTCCTTTAACCTCCCTGCAGGTCTCTAAA, the binding signal (log2 normalized intensity) amounted to 1.19.
As for GATTCCTGCTGAGAGAGCAGGTTGAGTATC, the binding signal (log2 normalized intensity) is -0.164.
Regarding GGCTGTGGAGGGCAGTGGATGGGGGCGTTC, the binding signal (log2 normalized intensity) came to 0.704.
With CTGGGAGATAAGATAGCACCAGCCCATTAA, the binding signal (log2 normalized intensity) is 0.0817.
As to ACCAGGCAAAAATGCCAGGCATTTGCGATA, the binding signal (log2 normalized intensity) is -1.17.
Turning to TTTGGCTCAGGGCCTCTCCTTCATCTTCAA, the binding signal (log2 normalized intensity) is -1.07.
As for GGGCTCAAAGGTTACCACCCAGGAGTCTGT, the binding signal (log2 normalized intensity) came to 2.67.
For GAGCAATTATGCACCCGTGGTTGATCAAAG, the binding signal (log2 normalized intensity) was 0.362.
Take GGCTGAGCGTGAACACCGGCCCCCTCCCCC: the binding signal (log2 normalized intensity) is 5.95.
CTAGGTGGCGCTGTTGACCTTGAAATGCCA: the binding signal (log2 normalized intensity) worked out at 1.46.
As for CCACCTCCTCTGAAGCTAGGACAAGGCTCA, the binding signal (log2 normalized intensity) is -1.18.
As for TGAGCTGAGTTCCACAGATAAGGAGGAGAC, the binding signal (log2 normalized intensity) is -1.04.
In the case of AGGTTATCTCGGGGCTGGCATGTCTCTGGT it was 1.24; in that of TTTTTGACCTGTATCTTGTGGTGACCTCTT, 4.51.
As for TGTGAGTCCAGTTGAATGATGGCGAGTGTG, the binding signal (log2 normalized intensity) was 1.62.
For the sequence ATGCCAGGAATGCTGAGGAGGGCCTGGGGG, the binding signal (log2 normalized intensity) is -1.16.
For the sequence GTTTAGTTGGAGAGACAGGTAAATCAGTAC, the binding signal (log2 normalized intensity) was -0.705.
In the case of ACCTCTCCCACCTGAATTATTGTATAGCTT, the binding signal (log2 normalized intensity) stood at 1.1.
As for CTGGCCTCTGAGATTCGGTGAGGGATTGTT, the binding signal (log2 normalized intensity) is 0.00819.
With GGGACAAAGGTCACAGGAAAGGGACCAAAG, the binding signal (log2 normalized intensity) amounted to 3.38.
Take TCCCATCCCACTAGGTGGCGCTGTTGACCT: the binding signal (log2 normalized intensity) amounted to 3.79.
Take CATCTCCAGTTCCAAAGTCCAGGTGCTTTC: the binding signal (log2 normalized intensity) amounted to 4.48.
For the sequence ACCTCCTGACTAAAGTTCATTGCTTTGAGC, the binding signal (log2 normalized intensity) was found to be 1.68.
Take GACAAACAGACTTCACACTAGAAGACTCAT: the binding signal (log2 normalized intensity) is -1.12.
In the case of GCTACAGAGCTCAGATTTCAAGGTGAGCAG it was -1.07.
On to AATGGAATACTTGCCTAAGGTCAATGTCCT, for which the binding signal (log2 normalized intensity) was 3.23.
For the sequence CCTGACCCCCTCCTCACCCCACTTTGGTTC, the binding signal (log2 normalized intensity) amounted to 4.61.
In the case of TAGATCAGCTTTCAACACTCTGGATTCCTC it was -1.15; in that of GGAATGCAGTAGTGCGATGATCATGGCTCA, -0.935.
As to ACAGCCTTTTCTTATCAGGCTCATTCTAAC, the binding signal (log2 normalized intensity) was -0.858.
In the case of TTTTTGTTCCACTGGTAACTAGGTTAATGT it was 1.83.
With TAGAACGCTGACTCCGGGGAGCAGGCAGAG, the binding signal (log2 normalized intensity) is -1.11.
Regarding TCAAGCCTTTGACTCGAATGCGAACCTGTC, the binding signal (log2 normalized intensity) came to 0.537.
Regarding TTTGATCTCTTATCACCCTGAACAGTGGCT, the binding signal (log2 normalized intensity) was found to be 0.123.
Regarding CTAGAGCCAAGGAAGAGAAGACCAAACAAC, the binding signal (log2 normalized intensity) is -1.02.
With AACACAGAACTATCAAACATTTTTGCAACA, the binding signal (log2 normalized intensity) was -1.1.
In the case of CCAGCCACGCCCTCTAACCCAGGTTCCCGT, the binding signal (log2 normalized intensity) was -1.26.
ACGCCGGCCAATCCGGCTGGCAGCCGATTG: the binding signal (log2 normalized intensity) was -1.16.
In the case of TCCTCTGGAGGCCAAAAGTAGGGAGGAGGG it was -1.07.
Regarding CAAAGGACAAATCTCACTGATAGTCTCCTA, the binding signal (log2 normalized intensity) was -1.03.

The values are drawn from article PMC10726135.
